Hit rate of the full screen: of about 48,000 compounds, about 1,200 (2.5%) were called active. Another 2% or so got no clear call; they are omitted.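 How the source made its calls: active means activation of at least 60% and not above a set upper limit (about 1 call in 100 departs from these limits); inconclusive means activation of 40% to 60%, or above that upper limit; inactive means activation under 40%.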 The list shows a part of the results.
Target: Probable G-protein coupled receptor 32 (Homo sapiens) (UniProt O75388)
Assay: qHTS for Agonists of Human Resolvin D1 Receptor DRV1; further: 0% is about no effect
Conditions: CHO-K1 GPR32 beta-arrestin PathHunter luminescence, 90 min; at 76.9 µM; hits give high values; zero percent set by DMSO-only wells
In short: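 CHO-K1 cells stably expressing ProLink-tagged GPR32 and Enzyme Activator-tagged beta-arrestin were seeded at 2,500 cells/well overnight, exposed to compounds for 90 min at 37 °C, then read by beta-Gal complementation chemiluminescence after 1 h detection reagent.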

UniProt O75388, sequence (O75388 whole entry, looked up): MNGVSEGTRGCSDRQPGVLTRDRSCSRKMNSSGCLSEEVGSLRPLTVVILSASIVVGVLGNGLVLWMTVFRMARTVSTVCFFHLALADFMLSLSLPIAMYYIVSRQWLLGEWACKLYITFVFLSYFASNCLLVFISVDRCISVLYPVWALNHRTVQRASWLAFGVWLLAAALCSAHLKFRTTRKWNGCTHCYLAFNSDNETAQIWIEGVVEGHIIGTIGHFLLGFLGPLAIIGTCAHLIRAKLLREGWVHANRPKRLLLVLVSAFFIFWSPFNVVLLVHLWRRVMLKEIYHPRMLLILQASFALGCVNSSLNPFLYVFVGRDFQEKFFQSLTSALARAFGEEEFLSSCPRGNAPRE

Structure (SMILES)	activation
COc1ccccc1CNC(=O)COCc1cc(-c2cccs2)on1	inactive: -18.5%
Cc1ccc(N(CC(C)C)S(=O)(=O)c2nnc(NC(=O)C(C)C)s2)cc1	inactive: -13.9%
CC(C)(C)c1ccc(C(=O)Nc2c(C(=O)c3ccc(F)cc3)oc3ccccc23)cc1	inactive: -6.12%
Cc1nn(C(C)C(=O)Nc2ccccc2C(F)(F)F)c(=O)c2c1sc1ccccc12 (configuration not stated)	inactive: -13%
Cc1nc2nc(CNC(=O)c3cccc(F)c3)nn2c(C)c1CCC(=O)Nc1cccc(Cl)c1	inactive: -6.11%
Cc1ccc(CNC(=O)c2cnc3c(-c4ccc(F)cc4)c(C)nn3c2C)o1	inactive: -8.31%
COc1ccc(Cl)cc1NC(=O)c1cnc2sc(N3CCOCC3)nn2c1=O	inactive: -4.08%
Cc1ccc2oc(-c3ccc(Cl)c(NC(=O)c4cc5ccccc5o4)c3)nc2c1	inactive: -10.2%
CN1CCN(CCNC(=O)c2cnn(-c3ccc(Cl)cc3)c2C2CCN(C(=O)OC(C)(C)C)CC2)CC1	inactive: -9.45%
CCOc1ccc(-c2nonc2NC(=O)c2oc3ccc(CC)cc3c2C)cc1	inactive: -23%
CCN(C(=O)C1CCN(S(=O)(=O)c2c(C)noc2/C=C/c2ccc(C)cc2)CC1)c1cccc(C)c1	inactive: -4.86%
COc1ccc(NC(=O)CSc2nc3ccccc3c(=O)n2CCC(=O)NC2CCCCC2)c(OC)c1	inactive: -5.96%
CCC(=O)N1CCc2cc(S(=O)(=O)NC(Cc3ccccc3)C(=O)O)ccc21 (configuration not stated)	inactive: -4.04%
Cc1ccc(S(=O)(=O)Nc2ccc3nc(-c4cccc(Cl)c4)oc3c2)cc1	inactive: 5.27%
COc1ccc(CCNC(=O)C(C)n2nc(C)c3sc4ccccc4c3c2=O)c(OC)c1 (configuration not stated)	inactive: -13.6%
O=C(CCCCCn1c(=O)c2sccc2n(Cc2ccccc2Cl)c1=O)NCc1ccc2c(c1)OCO2	inactive: -28.8%
COc1ccc(C(=O)N(Cc2ccco2)Cc2ccc(C)o2)cc1	inactive: -17.2%
Cc1cccc(-c2nc3nc(C)cc(NC(C)c4ccccc4)n3n2)c1 (configuration not stated)	inactive: 5.35%
O=C(NCc1ccc(F)cc1)C(=O)NCC(c1ccc2c(c1)OCO2)N1CCOCC1 (configuration not stated)	inactive: -13.9%
COc1ccc(NC(=O)C2CCCN(S(=O)(=O)c3c(C)[nH]c(=O)[nH]c3=O)C2)c(OC)c1 (configuration not stated)	inactive: -8.25%
Cc1ccc2nc(-c3ccc(NC(=O)COc4ccc(Br)cc4Br)cc3)sc2c1	inactive: -9.96%

Structure (SMILES)	activation
COCCCNC(=O)c1cnc2sc(N3CCCCC3)nn2c1=O	inactive: 11.5%
CNC(=O)c1c(NC(=O)/C=C/c2ccccc2)sc2c1CCC2	inactive: -16%
COc1cc(NS(=O)(=O)c2ccc(NC(=O)c3ccc(Cl)cc3Cl)cc2)nc(OC)n1	inactive: 17.4%
CCOc1ccc(NC(=O)Cn2nnc(-c3nc(-c4ccncc4)no3)c2N)cc1	inactive: -11.5%
Cc1nn2c(C)c(C(=O)NCCc3ccccc3)cnc2c1-c1ccccc1	inactive: -10.5%
CCOC(=O)c1ccc(NC(=O)CC(=O)Nc2ccc3nc4n(c(=O)c3c2)CCCCC4)cc1	inactive: -7.47%
CCc1ccc(NCc2cc3cc4c(cc3n(CC(=O)Nc3ccccc3C)c2=O)OCCO4)cc1	inactive: -19.8%
Cc1ccccc1NC(=O)/C(C#N)=C/c1ccc(Cl)cc1Cl	inactive: 29.7%
COc1ccc(-c2nc3sc(CCNS(=O)(=O)c4ccccc4)c(C)n3n2)cc1	inactive: 23.5%
CCCOc1ccc(C(=O)Nc2cc3c(cc2N2CCCCC2)n(C)c(=O)n3C)cc1	inactive: -6.23%
O=C(NCC1CCN(Cc2ccccc2F)CC1)Nc1ccc(F)c(Cl)c1	inactive: 6.41%
Cc1ccc2ncc3c(-c4ccc(F)cc4)nn(CC(=O)Nc4ccccc4C)c3c2c1	inactive: -17%
Cc1ccc(S(=O)(=O)Cc2nc(-c3ccc(C(=O)NCCCOC(C)C)cc3)oc2C)cc1	inactive: 17.2%
Cc1ccc2oc(C(=O)Nc3ccc(S(=O)(=O)Nc4nccc(C)n4)cc3)cc(=O)c2c1	inactive: -0.797%
COc1ccc(Br)cc1CNC(=O)CN1C(=O)c2cccnc2Oc2ccc(C)cc21	inactive: -4.22%
CC(C)c1ccc(N(CC(=O)O)S(=O)(=O)c2ccc3[nH]c(=O)c(=O)[nH]c3c2)cc1	inactive: -7.06%
CSc1ncc2c(n1)-c1ccccc1N(Cc1ccccc1)S2(=O)=O	inactive: -10.9%
CSc1ccc(CCNC(=O)CCCn2c(=O)c3cccn3c3ccccc32)cc1	inactive: -26%
CCOc1ccc(C(=O)Nc2cc3c(cc2N2CCCC2)n(C)c(=O)c(=O)n3C)cc1OCC	inactive: 10.4%
O=C1c2[nH]nc(-c3ccc(F)cc3)c2C(c2ccccc2F)N1c1ccccc1 (configuration not stated)	active: 108%
Cc1ccc2[nH]c3c(=O)n(CC(=O)Nc4ccc(Br)cc4C)ncc3c2c1	inactive: 2.13%

Structure (SMILES)	activation
COc1ccc(N(CC(=O)Nc2cccc(C(C)=O)c2)S(=O)(=O)c2ccccc2)c(OC)c1	inactive: -21.1%
Cc1cc(OCCCn2c(CCNC(=O)C3CCCCC3)nc3ccccc32)ccc1Cl	inactive: -5.84%
COc1ccc(-c2c3c(=O)n(C)c(=O)n(C)c3c3n2-c2ccccc2NC3c2ccc(O)cc2O)cc1 (configuration not stated)	inactive: -19.2%
COc1ccc2c(Sc3ccc(C)cc3)c(C(=O)NCCc3ccccc3)[nH]c2c1	inactive: 4.72%
O=C(CSc1nc(-c2cccs2)nc2cc(=O)[nH]n12)Nc1cccc(C(F)(F)F)c1	inactive: -4.08%
CCOc1ccc(C(=O)N(Cc2cc(OC)c(OC)c(OC)c2)c2ccccn2)cc1	inactive: 14.2%
OCc1cnc(SCc2ccc(F)cc2)n1Cc1ccc(F)cc1	active: 109%
O=C(Nc1nc2n(n1)C(c1ccc(Cl)cc1)C=C(c1ccccc1)N2)c1ccco1 (configuration not stated)	inactive: 7.18%
Cc1nn(C)c2c1c(C(F)(F)F)cc(=O)n2C(C)C(=O)NCCc1ccccc1 (configuration not stated)	inactive: 3.76%
CCOC(=O)C1=C(C)NC(=O)NC1c1cn(-c2ccccc2)nc1-c1ccc(OC(C)C)cc1 (configuration not stated)	inactive: -6.54%
COc1ccc(CCNC(c2ccc(F)cc2)c2nnc(-c3ccccc3Cl)o2)cc1OC (configuration not stated)	inactive: -4.27%
O=C(CN1c2ccccc2S(=O)(=O)c2ccccc21)Nc1ccccc1Cl	inactive: -11.5%
O=C(Cn1cnc2onc(-c3ccc(F)cc3)c2c1=O)Nc1ccc(F)c(Cl)c1	inactive: 19.3%
COc1ccccc1N(CC(=O)Nc1ccc2c(c1)OCO2)S(=O)(=O)c1ccc(C)cc1	inactive: 3.03%
O=C(c1ccc(F)cc1)N1CCC(c2nc(-c3ccc(S(=O)(=O)N4CCCC4)cc3)no2)CC1	inactive: -4.66%
CCCOc1ccc(-c2nonc2NC(=O)c2oc3ccc(Cl)cc3c2C)cc1OCCC	inactive: -1.57%
CCc1nn(CC(=O)NCCCN2CCN(CC)CC2)c(=O)c2cc3occc3n12	inactive: -27.7%
CCOc1ccc(S(=O)(=O)c2cn(Cc3ccccc3C)c3ccc(OC)cc3c2=O)cc1	inactive: -15.8%
CCc1cccc(NC(=O)C2Cc3ccccc3N2C(=O)c2ccccc2)c1 (configuration not stated)	inactive: 2.74%
Cc1ccc2nc(COc3ccccc3NC(=O)c3ccccc3F)cc(=O)n2c1	inactive: -6.52%
Cc1ccc2c(c1)c(CC(=O)Nc1ccc(C)c(F)c1)c(C(=O)O)n2C	inactive: -0.0721%

Structure (SMILES)	activation
CCOc1cccc(C2c3[nH]c4ccccc4c3CCN2C(=O)CSCc2ccc(F)cc2)c1 (configuration not stated)	inactive: -36.3%
O=C(c1ccc2c(c1)N(Cc1c(F)cccc1Cl)C(=O)c1ccccc1S2)N1CCOCC1	inactive: -13.1%
CCOC(=O)N1CCN(Cc2nc3cc(NC(=O)C(C)C)ccc3n2C(C)C)CC1	inactive: -6.48%
CCCNC(=O)c1ccc(-c2nc(CS(=O)(=O)c3ccc(C)cc3)c(C)o2)cc1	inactive: 1.85%
COc1ccc(OC)c(NC(=O)CSc2ncc3c(n2)-c2ccccc2N(C)S3(=O)=O)c1	inactive: -3.85%
O=C(C1COc2ccccc2O1)N(Cc1cccnc1)c1nc2c(Cl)cccc2s1 (configuration not stated)	inactive: -7.47%
NC(=O)Cn1c(=O)n(CCCCCC(=O)NCc2ccc(F)cc2)c(=O)c2sccc21	inactive: -11.4%
COc1ccc(-n2nnc(-c3nsc(NC(=O)c4cccs4)n3)c2C)cc1OC	inactive: -0.722%
CCS(=O)(=O)N1CC(=O)N(c2cc(C)ccc2C)C(C)(C(=O)NC2CCCCC2)C1 (configuration not stated)	inactive: -3.68%
Cc1ccc(Cl)cc1NC(=O)N1CCC2(CC1)Oc1ccccc1C(=O)N2Cc1ccccc1F	inactive: -20.7%
COc1ccc(-c2cn3c(n2)sc2cc(C(=O)NC4CCCCCC4)ccc23)cc1	inactive: -11.3%
Cc1cccc(NC(=O)C(=O)NCCc2sc(-c3ccccc3)nc2C)c1C	inactive: -0.561%
Cc1c(Cl)cccc1NC(=O)C(CCS(C)(=O)=O)N1Cc2ccccc2C1=O (configuration not stated)	inactive: -10.9%
Cc1ccc(S(=O)(=O)c2c(Nc3cc(C)ccc3C)sc(C(=O)c3ccc4c(c3)OCO4)c2N)cc1	inactive: -24.6%
CC(=O)c1c(C)oc2ccc(N(C(=O)Oc3ccccc3)S(=O)(=O)c3ccccc3)cc12	inactive: -27.5%
CC1CCCN(c2c(S(=O)(=O)c3ccccc3)cnc3ccc(Cl)cc23)C1 (configuration not stated)	inactive: -10.7%
CC(CNC(=O)c1cc(-c2ccccc2)n[nH]1)c1ccccc1 (configuration not stated)	inactive: 13.6%
COc1ccc(CCN2C(=O)N(c3ccc(C)cc3)C(=O)C2CC(=O)Nc2ccc(F)cc2)cc1 (configuration not stated)	inactive: -2.77%
Cc1nn(C(=O)COc2ccccc2Br)c(C)c1Sc1ccccc1	inactive: 22.4%

Reference: PubChem BioAssay AID1346428 (National Center for Advancing Translational Sciences (NCATS), 2018)
